# Assay results taken from PubChem BioAssay AID1346428 (National Center for Advancing Translational Sciences (NCATS), 2018).
# Among all 48,000 compounds or so, about 1,200 (2.5%) were called active. About 2% were inconclusive and are not listed.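 Rule for the calls: active = activation of at least 60% and not above a set upper limit (about 1 call in 100 departs from these limits); inconclusive = activation of 40% to 60%, or above that upper limit; inactive = activation under 40%.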 The list shows a part of the results.
# Molecular target: Probable G-protein coupled receptor 32 (Homo sapiens) (UniProt O75388)
# UniProt O75388, sequence (O75388 whole entry, looked up): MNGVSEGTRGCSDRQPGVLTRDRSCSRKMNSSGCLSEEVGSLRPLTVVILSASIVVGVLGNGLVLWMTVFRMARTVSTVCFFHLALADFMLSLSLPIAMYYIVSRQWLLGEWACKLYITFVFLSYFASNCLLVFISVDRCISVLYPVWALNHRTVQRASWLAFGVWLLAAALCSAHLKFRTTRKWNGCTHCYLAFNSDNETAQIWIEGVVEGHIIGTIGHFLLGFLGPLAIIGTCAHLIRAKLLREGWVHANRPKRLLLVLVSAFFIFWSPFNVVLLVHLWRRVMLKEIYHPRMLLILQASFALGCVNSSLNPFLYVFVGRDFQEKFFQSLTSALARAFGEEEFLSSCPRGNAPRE
# Experiment: qHTS for Agonists of Human Resolvin D1 Receptor DRV1; note: 0% is about no effect
# Details: CHO-K1 GPR32 beta-arrestin PathHunter luminescence, 90 min; at 76.9 µM; stronger effect = higher value; zero percent set by DMSO-only wells
# Procedure, shortened: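 Cells are plated overnight, treated with compounds in DMSO for 90 minutes at 37 °C, and developed with PathHunter detection reagent for 1 hour before luminescence is read; signal reflects beta-arrestin binding to GPR32 in engineered CHO-K1 cells.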
row,Compound,activation
1,CCOc1ccc(C(=O)NCCn2cc(SCC(=O)Nc3ccc4c(c3)OCCO4)c3ccccc32)cc1,inactive: -5.68%
2,Cc1nc2scc(C)n2c(=O)c1S(=O)(=O)Nc1ccc(N2CCOCC2)c(Cl)c1,inactive: 6.51%
3,CN1CCc2c(sc3c2C(=O)NC(c2ccc(OC(=O)c4ccc(C(C)(C)C)cc4)cc2)N3)C1 (centres undefined),active: 64.5%
4,O=C(NCCc1c[nH]c2ccccc12)c1cccnc1,inactive: 17.1%
5,COCCCNc1oc(/C=C/c2cc(OC)c(OC)c(OC)c2)nc1C#N,inactive: -13.4%
6,CCN(CC)C(=O)c1sc2c(c1C)c(=O)n(-c1ccc(Cl)c(Cl)c1)c(=O)n2Cc1ccccc1C#N,inactive: -2.46%
7,COc1cc(NC(=O)Cn2c(=O)n(Cc3ccco3)c(=O)c3sc4ccccc4c32)cc(OC)c1,inactive: 10.4%
8,CCC(C)NC(=O)c1cc(-c2cccc(OC)c2)on1 (centres undefined),inactive: 11.7%
9,Cc1ccc(C)c(N2CCN(C(=O)C3CCN(c4nc5ccc(C)cc5[nH]4)CC3)CC2)c1,inactive: 46.4%
10,Cc1cccc(NC(=O)CSc2ncc3c(n2)-c2ccccc2N(Cc2ccc(F)cc2)S3(=O)=O)c1C,inactive: -16.6%
11,Cc1ccc(N2CCN(C(=O)c3c(C)oc4ncn(CC(C)C)c(=O)c34)CC2)c(C)c1,inactive: 5.45%
12,Cc1ccc(Oc2c(C(F)(F)F)oc3c(CN4CCC(C)CC4)c(O)ccc3c2=O)cc1,inactive: -9.68%
13,CCc1cccc(NC(=O)CCC(=O)N2CCSc3ccccc32)c1,inactive: -21.6%
14,CN(C)c1ccc(-c2nc(-c3cc4cc(Cl)ccc4oc3=O)cs2)cc1,inactive: -10.5%
15,Cc1cc(-c2ccc(C)c(S(=O)(=O)N3CCN(c4cccc(C(F)(F)F)c4)CC3)c2)on1,inactive: -3.23%
16,Cc1cccc(CCNC(=O)c2ccc3c(c2)N(Cc2ccccc2F)C(=O)c2ccccc2S3)c1,inactive: -20.1%
17,CCC(=O)N1CCc2cc(Br)cc(S(=O)(=O)CCC(=O)NCc3ccc(Cl)cc3)c21,inactive: -17.1%
18,Cc1nc(Oc2ccc(F)cc2Cl)c2oc3ccccc3c2n1,inactive: -12.9%
19,CCOc1ccccc1NC(=O)CN(C)S(=O)(=O)c1ccc2nc(C)sc2c1,inactive: -18.4%
20,CC(C)Oc1ccc(C(=O)N(Cc2ccco2)c2ccccn2)cc1,inactive: 2.46%
21,Cc1ccc(NC(=O)CCc2nnc3n(C)c(=O)c4sccc4n23)cc1C,inactive: 12.6%

row,Compound,activation
1,CSC1=NC2(CCN(C(=O)NC3CCCCC3)CC2)N=C1c1ccc(C)c(C)c1,inactive: 14.7%
2,Cc1ccc(CNC(=O)CC(C)S(=O)(=O)c2cc3c(cc2C)NC(=O)CO3)cc1 (centres undefined),inactive: -9.02%
3,O=C(Nc1sc2c(c1C(=O)NCc1ccco1)CCCC2)c1cc(=O)c2ccccc2o1,inactive: 0.1%
4,COc1ccc(Br)cc1CNC(=O)c1cc2n(n1)CCCN(Cc1ccc(C)cc1)C2=O,inactive: -17%
5,Cc1ccc(C)c(NC(=O)CN2C(=O)C(C)(C)c3ccccc32)c1,inactive: -7.26%
6,CCc1ccc(CN(Cc2ccco2)c2cnc(S(C)(=O)=O)nc2C(=O)Nc2ccccc2Cl)cc1,inactive: -16.6%
7,CCc1nnc(SC(CC)C(=O)Nc2cccc(OC)c2)c2cc3oc(C)cc3n12 (centres undefined),inactive: -28.2%
8,Cc1ccc(Sc2c(C)nn(C(C)(C)C)c2OC(=O)C(C)(C)C)cc1,inactive: 4.46%
9,Fc1ccc(Nc2c3c(nc4ccccc24)CCC3)cc1,inactive: 34.3%
10,COC(=O)c1scc(-c2ccc(C)cc2)c1S(=O)(=O)N1CCN(c2cccc(OC)c2)CC1,inactive: -5.12%
11,CCOC(=O)c1ccc(NC(=O)CC2C(=O)OCCN2CC)cc1 (centres undefined),inactive: 24.3%
12,O=C(NCc1ccco1)c1ccc2c(c1)N(Cc1ccc(Cl)cc1)C(=O)c1ccccc1S2=O (centres undefined),inactive: -11.1%
13,CCN(c1ccccc1)c1nnc(NC(=O)Nc2ccccc2F)s1,inactive: -1.6%
14,CCN(C(=O)C1CCCN(S(=O)(=O)c2c(C)noc2/C=C/N(C)C)C1)c1cccc(C)c1 (centres undefined),inactive: -34.7%
15,COc1ccc(NC(=O)C2=C(C)Nc3nc(SCc4ccccc4C)nn3C2c2cc(OC)c(O)c(OC)c2)cc1 (centres undefined),inactive: -1.07%
16,Cc1ccc(-n2ncc(C(=O)NCc3cccs3)c2C2CCN(C(=O)OC(C)(C)C)CC2)c(C)c1,inactive: -0.841%
17,CCC(Sc1nc2cc(OC)c(OC)cc2c2nc(-c3ccccc3)nn12)C(=O)Nc1cccc(C)c1 (centres undefined),inactive: 9.37%
18,O=C(NCc1ccccc1Cl)c1ccc(CSCc2ccccc2Cl)o1,inactive: -30.1%
19,COc1ccc(OC)c(NC(=O)CSc2nnc3ccc4ccccc4n23)c1,inactive: 3.17%
20,Cc1ccc(CSc2nnc(CCNC(=O)OC(C)(C)C)o2)cc1,inactive: 15.2%
21,COc1ccc(NC(=O)CCn2c(=O)c3cccn3c3cccnc32)c(OC)c1,inactive: -12%

row,Compound,activation
1,CCC(C(=O)NCc1ccccc1)n1nc(C)c2sc3ccccc3c2c1=O (centres undefined),inactive: -10.3%
2,COc1ccccc1OC(C)C(=O)Nc1ccc(-c2nc3ccccc3s2)cc1 (centres undefined),inactive: -7.75%
3,CCc1ccc(NC(=O)CCn2nc(-c3ccccc3OC)c3c(C)cc(C)nc32)cc1,inactive: -6.61%
4,Cc1ccc(-c2nnc(Nc3cccc(O)c3)c3ccccc23)cc1S(=O)(=O)N1CCOCC1,inactive: 32.5%
5,COc1ccc(-c2noc(CC(=O)Nc3ccc(F)cc3F)n2)cc1,inactive: -11.4%
6,CN(Cc1ccccc1)C(=O)Nc1ccc2c(c1)N(C)C(=O)c1ccccc1S2,inactive: -22.7%
7,c1ccc(Nc2c(-c3c[nH]c4ccccc34)nc3ccccn23)cc1,inactive: -18.2%
8,COc1ccc(-c2cc(C(=O)OC(C)C(=O)c3ccccc3)c3cccc(Cl)c3n2)cc1 (centres undefined),inactive: 0.735%
9,Cc1ccc2nc(N3CCC(C(=O)N4CCN(c5cccc(Cl)c5)CC4)CC3)[nH]c2c1,inactive: 4.22%
10,CC(C)CCOC(=O)c1ccc(N(C)C)cc1,inactive: -18.6%
11,CCOCCCNC(=O)C(c1ccc(C)cc1)N(Cc1ccc2c(c1)OCO2)C(=O)c1ccc(NC(C)=O)cc1 (centres undefined),inactive: -3.96%
12,CCC(C)NC(=O)c1ccccc1NC(=O)CN1C(=O)c2cccc3cccc1c23 (centres undefined),inactive: -13.1%
13,CC(C)Nc1ccc(-c2nc(-c3ccco3)no2)cc1[N+](=O)[O-],inactive: -9.46%
14,Cc1ccc(C2c3[nH]c4ccccc4c3CCN2C(=O)c2cccc(C)c2)cc1 (centres undefined),inactive: -40%
15,CC1CC(OC(=O)C(O)c2ccccc2)CC(C)(C)N1C (centres undefined),inactive: 12.8%
16,Cc1cccc(OCC(=O)Nc2ccc(Cl)c(-c3nc4ncccc4o3)c2)c1C,inactive: 9.91%
17,COc1cc2cc(CNc3ccc(C)cc3)c(=O)n(CC(=O)Nc3ccc(F)cc3F)c2cc1OC,inactive: -37%
18,CC(C)NC(=O)CN1C(=O)COc2ccc(S(=O)(=O)N3CCCCCC3)cc21,inactive: -6.12%
19,CCOC(=O)c1c(C)[nH]c(CCC(=O)Nc2ccc(C)c(F)c2)c1C,inactive: -4.53%
20,COc1cc(C(=O)NCC(c2cccs2)S(=O)(=O)c2ccc(F)cc2)cc(OC)c1OC (centres undefined),inactive: 13.3%
21,Cc1cccc(NC(=O)c2nnn(CC(=O)Nc3ccc(C(C)C)cc3)c2N)c1C,inactive: -6.95%

row,Compound,activation
1,CCN(CCCNC(=O)c1cc2c(=O)n(CC)c3ccccc3c2s1)c1ccccc1,inactive: 4.81%
2,COCCCNC(=O)c1c(NC(=O)Cc2coc3cc(C)cc(C)c23)sc2c1CCCC2,inactive: -5.85%
3,COc1ccc(OC)c(CNC(=O)Cc2ccc(NC(=O)N3CCCCc4ccccc43)cc2)c1,inactive: 12.7%
4,CCc1ccc(CNC(=O)CSc2cc(=O)n(C)c3ccc(Cl)cc23)cc1,inactive: 23.1%
5,O=C(c1ccc2c(c1)N(Cc1ccccc1F)C(=O)c1ccccc1S2(=O)=O)N1CCCC1,inactive: -2.07%
6,COc1ccc(-c2cc(-c3ccccc3)nc(SCC(=O)CC(=O)OC(C)C)c2C#N)cc1,inactive: 47.4%
7,CC(NC(=O)CCSCc1ccccc1F)c1ccccc1 (centres undefined),inactive: -20.8%
8,Cc1cc(F)ccc1NCc1ccccc1-c1nnc(-c2ccccc2Cl)o1,inactive: -15.2%
9,O=C(NCC(c1cccnc1)N1CCc2ccccc21)c1cccc(C(F)(F)F)c1 (centres undefined),inactive: -30.3%
10,COc1ccc(C(=O)N(Cc2cc(OC)c(OC)c(OC)c2)CC2CCCO2)cc1 (centres undefined),inactive: -16.2%
11,COc1ccc(CCCc2nnc(SCC(=O)Nc3ccc(C)cc3C)o2)cc1,inactive: 23.4%
12,CCN(CC)S(=O)(=O)c1cc(-c2onc(C)c2C)ccc1OC,inactive: -8%
13,CCCNC(=O)CSc1nc2nc(C)c(Cc3ccccc3Cl)c(C)n2n1,inactive: -23.2%
14,Cc1ccc(-c2noc(-c3nnn(CC(=O)Nc4cc(C)cc(C)c4)c3N)n2)cc1,inactive: 0.1%
15,O=C(CSc1nccn1Cc1ccc(F)cc1)Nc1ccc2c(c1)OCCO2,inactive: -14.5%
16,CCc1ccc(C(=O)c2cn(CC(=O)Nc3ccc(OC)cc3OC)c3ccc(CC)cc3c2=O)cc1,inactive: 0.316%
17,O=C(NCc1cccc(Cl)c1)C1CCN(C(=O)c2sccc2-n2cccc2)CC1,inactive: -15.6%
18,COc1cccc(C(=O)Nc2cccc(C(=O)OCc3cc(=O)n4nc(C(C)C)sc4n3)c2)c1,inactive: -8.6%
19,Cc1ccc(N(C)C(=O)c2cnc(N3CCOCC3)c3ccccc23)cc1C,inactive: -16.6%
20,CC(=O)N1CCC(N(C(=O)Nc2c(F)cccc2F)C(C)C)CC1,inactive: 9.13%
21,COc1cc(C(=O)Nc2ccc3nc(SCc4ccccc4)sc3c2)cc(OC)c1OC,inactive: -8.91%
